Experimental findings from the supplement of paper PMC4604168 (melanoma cell lines) are described below.

The list shows a part of the results. Most values come without repeats; read them as rough.

Among the test systems are G361; IPC-298; IST-MEL1; LB2518-MEL; LOXIMVI; MEL-HO; MZ2-MEL; MeWo; RPMI7951; RVH-421.
What all share (test): cell count relative to DMSO control; melanoma cells; higher = more viable cells
Common to all, as to conditions: library dose: standard library concentration; 72 h
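Also: cells treated in 1,536-well plates, then fixed and DAPI-stained, with nuclei counted from automated high-throughput microscope images.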

In the case of `CCCS(=O)(=O)Nc1ccc(F)c(C(=O)c2c[nH]c3ncc(Cl)cc23)c1F` + O=c1cc(-c2cccc3c2Sc2ccccc2S3)oc(N2CCOCC2)c1 [KU55933] (first compound 0.4 µM, partner dose 5 µM), the cell count with G361 came to 63%; with IPC-298, 91.6%; in the assay on IST-MEL1, 80.5%; with LB2518-MEL, 75.9%; in the assay on LOXIMVI, 98.9%; with MEL-HO, 83.8%. For the same compound, the cell count with MZ2-MEL is 103%; in the assay with MeWo it was 84%; in the assay on RPMI7951 it was 88.1%; with RVH-421, 75.3%.
With `CS(=O)(=O)c1ccc(C(=O)Nc2ccc(Cl)c(-c3ccccn3)c2)c(Cl)c1` [vismodegib] + O=C(O)c1ccc2c(c1)nc(Nc1cccc(Cl)c1)c1ccncc12 [CX4945] (first compound 5 µM, partner dose 2 µM), the cell count is 56.7% in the assay with G361; 72.6% in the assay on IPC-298; 75.3% with IST-MEL1; 101% with LB2518-MEL; 43.9% in the assay on LOXIMVI; 57.2% in the assay with MEL-HO. Moreover, the cell count was 62% in the assay with MZ2-MEL, 84.6% in the assay on MeWo, 82.1% in the assay on RPMI7951 and 77.2% in the assay with RVH-421.
`C=C(c1ccc(C(=O)O)cc1)c1cc2c(cc1C)C(C)(C)CCC2(C)C` [Bexarotene] + OCc1c[nH]c2ccccc12 [Indole-3-carbinol] (first compound 10 µM, partner dose 4 µM): the cell count with G361 is 72.3%; with IPC-298 it was 82.7%; in the assay with IST-MEL1, 87.9%; in the assay with LB2518-MEL, 119%; with LOXIMVI it was 111%; in the assay on MEL-HO, 87.1%. Moreover, the cell count with MZ2-MEL stood at 64.4%; in the assay with MeWo it was 98.5%; with RPMI7951, 79.6%; in the assay with RVH-421, 103%.
As for `C=C(c1ccc(C(=O)O)cc1)c1cc2c(cc1C)C(C)(C)CCC2(C)C` [Bexarotene] + O=c1cc(-c2cccc3c2Sc2ccccc2S3)oc(N2CCOCC2)c1 [KU55933] (first compound 10 µM, partner dose 5 µM), the cell count in the assay with G361 turned out to be 79.7%; in the assay on IPC-298 it was 92.3%; in the assay with IST-MEL1 it was 109%; with LB2518-MEL it was 120%; in the assay on LOXIMVI it was 126%; in the assay on MEL-HO, 89.5%. Moreover, the cell count in the assay on MZ2-MEL was determined as 110%; with MeWo, 98.2%; with RPMI7951, 88.9%; in the assay on RVH-421, 137%.
`NC1(c2ccc(-c3nc4ccn5c(=O)[nH]nc5c4cc3-c3ccccc3)cc2)CCC1` + Cn1c(Nc2ccc(C(F)(F)F)cc2)nc2cc(Oc3ccnc(-c4ncc(C(F)(F)F)[nH]4)c3)ccc21 [CHIR265] (first compound 2 µM, partner dose 0.4 µM): the cell count in the assay on G361 was determined as 6.9%; in the assay on IPC-298 it was 49.9%; in the assay on IST-MEL1, 72.5%; in the assay with LB2518-MEL, 34.4%; in the assay on LOXIMVI, 70.7%; with MEL-HO, 44.7%. For the same compound, the cell count came to 58.8% in the assay on MZ2-MEL, 57.4% in the assay on MeWo, 35.6% with RPMI7951 and 55.2% in the assay with RVH-421.
`CN(c1ncccc1CNc1nc(Nc2ccc3c(c2)CC(=O)N3)ncc1C(F)(F)F)S(C)(=O)=O` + CN(NC(=O)CC(=O)NN(C)C(=S)c1ccccc1)C(=S)c1ccccc1 [STA4783] (first compound 0.4 µM, partner dose 0.03 µM): the cell count in the assay on G361 amounted to 37.9%; in the assay on IPC-298, 81.6%; in the assay on IST-MEL1, 49.3%; in the assay on LB2518-MEL, 17.1%; with LOXIMVI it was 65.1%; with MEL-HO, 76.9%. In addition, the cell count was 94.4% in the assay with MZ2-MEL, 12.4% in the assay on MeWo, 60.1% in the assay on RPMI7951 and 53.5% with RVH-421.
For `CS(=O)(=O)c1ccc(C(=O)Nc2ccc(Cl)c(-c3ccccn3)c2)c(Cl)c1` [vismodegib] + CCCCCCCCCCCC1=C(O)C(=O)C=C(O)C1=O [Embelin] (first compound 5 µM, partner dose 6 µM), the cell count in the assay on G361 was found to be 86.5%; in the assay with IPC-298, 87%; with IST-MEL1, 64.1%; with LB2518-MEL, 105%; with LOXIMVI it was 108%; with MEL-HO, 78.8%. For the same compound, the cell count was determined as 99.7% with MZ2-MEL, 120% with MeWo, 95.7% in the assay on RPMI7951 and 66.2% in the assay with RVH-421.
For the compound `CN(c1ncccc1CNc1nc(Nc2ccc3c(c2)CC(=O)N3)ncc1C(F)(F)F)S(C)(=O)=O` + NCC(=O)Nc1ccc(-n2nc(C(F)(F)F)cc2-c2ccc3c(ccc4ccccc43)c2)cc1 [OSU03012] (first compound 0.4 µM, partner dose 5 µM), the cell count in the assay on G361 is 64.6%; with IPC-298 it was 59.9%; in the assay on IST-MEL1 it was 53.6%; in the assay with LB2518-MEL, 71.3%; with LOXIMVI, 61.3%; in the assay on MEL-HO, 79.8%. Further, the cell count with MZ2-MEL was determined as 65.6%; with MeWo, 105%; with RPMI7951, 55.7%; in the assay on RVH-421, 92.2%.
Regarding `C=C(c1ccc(C(=O)O)cc1)c1cc2c(cc1C)C(C)(C)CCC2(C)C` [Bexarotene] + Clc1ccc(Nc2nnc(Cc3ccncc3)c3ccccc23)cc1 [vatalanib] (first compound 10 µM, partner dose 10 µM), the cell count was 60.2% in the assay with G361; 53.8% in the assay on IPC-298; 69.8% in the assay on IST-MEL1; 87.4% in the assay on LB2518-MEL; 78.4% with LOXIMVI; 53.4% in the assay with MEL-HO. Besides, the cell count worked out at 64.2% with MZ2-MEL, 66.7% with MeWo, 80.4% in the assay with RPMI7951 and 62.1% with RVH-421.
Turning to `CN(c1ncccc1CNc1nc(Nc2ccc3c(c2)CC(=O)N3)ncc1C(F)(F)F)S(C)(=O)=O` + O=c1cc(-c2cccc3c2Sc2ccccc2S3)oc(N2CCOCC2)c1 [KU55933] (first compound 0.4 µM, partner dose 5 µM), the cell count with G361 is 75.2%; in the assay with IPC-298 it was 91.7%; in the assay on IST-MEL1 it was 112%; in the assay with LB2518-MEL it was 93.4%; with LOXIMVI, 199%; with MEL-HO, 81.8%. Further, the cell count in the assay with MZ2-MEL stood at 94.7%; in the assay with MeWo, 98.7%; with RPMI7951, 69.3%; in the assay with RVH-421, 82.6%.
For `CCCS(=O)(=O)Nc1ccc(F)c(C(=O)c2c[nH]c3ncc(Cl)cc23)c1F` + O=S(=O)(c1ccccc1)N(CC(F)(F)F)c1ccc(C(O)(C(F)(F)F)C(F)(F)F)cc1 [T0901317] (first compound 0.4 µM, partner dose 7 µM), the cell count amounted to 59.6% in the assay on G361; 60.8% in the assay on IPC-298; 91.1% in the assay on IST-MEL1; 86.5% in the assay on LB2518-MEL; 97.3% with LOXIMVI; 81.2% with MEL-HO. The cell count in the assay on MZ2-MEL was determined as 67.4%; with MeWo, 92.2%; with RPMI7951, 109%; with RVH-421 it was 80.5%.
